Paper PMC12040169 (PLOS Biology, 2025)
This is one part of the list.

System: T1, C. trachomatis L2/434/Bu expressing GFP (CTL2-GFP)
T1 construct: L2/434/Bu GFP intracellular growth in HeLa cells
Parameters: species or system HeLa; C. trachomatis total inclusion area by high-content imaging, normalised to DMSO
Conditions: total inclusion area; 28.5 h, 10 µM; inhibitor
Summary of the method: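 After bulk GFP and resorufin fluorescence reads, cells were fixed, stained with Hoechst and imaged by high-content microscopy. Inclusion area and number (GFP) stood in for chlamydial growth, nuclei count (Hoechst) for host cell viability. MICs were derived as for the bulk readout.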

Row | Compound | % of control remaining
1 | FC(F)(F)Oc1cccc(-c2cncc(NCc3cccs3)n2)c1 [CBK065909] | 102.479
2 | COc1ccc(Cl)cc1S(=O)(=O)N1CCC(C(=O)NCCO)CC1 [CBK270002] | 83.1326
3 | COc1cc(NC(=O)N2CCN(c3cc(C(F)(F)F)ccn3)CC2)cc(OC)c1OC [CBK162349] | 92.5151
4 | CCCCN(C)c1c(C)nc2c(Oc3ncccn3)cccn12 [CBK147190] | 105.757
5 | COc1cccc(C2C(C(=O)c3ccc(Cl)cc3)=C(O)C(=O)N2CCCN2CCOCC2)c1 (stereo not shown) [CBK264865] | 92.6886
6 | Fc1ccc(CSc2nnc(-c3ccccn3)[nH]2)cc1 [CBK270074] | 78.012
7 | NC(=O)c1ccccc1NC(=O)CN1CCN(Cc2cccc(F)c2)CC1 [CBK270292] | 91.6498
8 | O[C@H](CNCc1ccccc1)COc1cccc2c1C1CCC2CC1 [CBK000370] | 50.7559
9 | CCNc1cc2ccccc2c(-c2ccc3c(c2)OCCCO3)n1 [CBK089641] | 101.356
10 | OCc1cccc2c3c(n(Cc4ccccc4)c12)CCCC3 [CBK004693] | 86.7692
11 | Cc1nc2ccccc2n1CC(O)COc1ccccc1 (stereo not shown) [CBK288084] | 72.8786
12 | OCCc1ccc(Nc2cc(-c3ccco3)ncn2)cc1 [CBK090771] | 115.872
13 | O=C(C1CCCC1)N1CCCC1c1nc2ccccc2[nH]1 (stereo not shown) [CBK282378] | 113.385
14 | COc1ccc2cc(Br)ccc2c1CC(=O)Nc1ccccc1[N+](=O)[O-] [CBK268823] | 114.399
15 | OCc1nc(-c2cccnc2)co1 [CBK018811] | 80.1932
16 | Cc1cc(=O)oc2cc(SCc3ccc(Cl)s3)ccc12 [CBK002898] | 84.577
17 | O=S(=O)(Nc1ccccc1)c1ccccc1I [CBK057566] | 81.5311
18 | CCCS(=O)(=O)Nc1nccnc1-c1ccc(Oc2ccccc2)cc1 [CBK050908] | 85.8264
19 | Cc1ccc(-c2c(N3C(=O)c4cccnc4C3=O)n[nH]c2C)cc1 [CBK288199] | 56.2789
20 | COc1ccc(CNc2nccs2)c(O)c1 [CBK265690] | 108.765
21 | CCn1cc(C2CN(S(=O)(=O)c3ccc(F)c(C)c3)CCO2)cn1 (stereo not shown) [CBK305419] | 96.4177

Row | Compound | % of control remaining
22 | Cc1cc2[nH]c(=O)oc2cc1S(=O)(=O)NCCN1CCCCC1CO (stereo not shown) [CBK307307] | 99.2161
23 | COc1ccc(C)cc1N(C(=O)c1ccccn1)c1nc2ccccc2s1 [CBK297944] | 99.5951
24 | Cc1csc2c(N3CCSCC3)ncnc12 [CBK009169] | 22.9081
25 | COc1ccc(-c2cncc(N3CCCC3CO)n2)cc1 (stereo not shown) [CBK037223] | 96.6231
26 | CC(C)(C)OC(=O)N1CCC(COc2ccc(-c3ccc(S(C)(=O)=O)cc3)nc2)CC1 [CBK167839] | 63.0734
27 | CCS(=O)(=O)Nc1cc([N+](=O)[O-])ccc1OC [CBK111343] | 57.9518
28 | CNC(=O)c1ccc(-c2cc(C)cs2)nc1N(C)C [CBK106150] | 88.8275
29 | Cc1cc(=O)oc2cc(Sc3sccc3[N+](=O)[O-])ccc12 [CBK002936] | 21.6722
30 | COc1ccc(Br)cc1S(=O)(=O)Nc1cccc(C(=O)Nc2ccc(F)cc2)c1 [CBK038981] | 77.5849
31 | FC(F)(F)c1cnc(Oc2ccc(-n3ccnc3)cc2)c(Cl)c1 [CBK161625] | 87.7877
32 | O=C(NC1CCN(Cc2c(F)cccc2Cl)CC1)C1CCN(C(=O)OCc2ccccc2)CC1 [CBK074720] | 75.3103
33 | CCc1nn(Cc2ccccn2)c(=O)c2cc3sc(C)cc3n12 [CBK284113] | 125.732
34 | CNC(=O)C1(Cc2ccc(-c3ccccc3)cc2)CCN(C(=O)C2CCCCC2)CC1 [CBK285762] | 122.386
35 | Cc1nnc([C@H]2CCN(Cc3ccc4c(c3)OCO4)C2)o1 [CBK289392] | 93.013
36 | O=C1CCC(=O)N1CCOc1nccnc1OC1CCN(CCc2ccc3ccccc3c2)CC1 [CBK084358] | 92.5766
37 | Cn1cc(C(c2ccc(OCC(=O)O)cc2)c2cn(C)c3ccccc23)c2ccccc21 [CBK266403] | 0.281
38 | C/C=C/c1ccc(OCCCSc2nc(C)cc(O)n2)c(OC)c1 [CBK267413] | 108.401
39 | Cc1ccccc1OCC(=O)NCc1ccc(C(=O)O)cc1 [CBK287155] | 97.7441
40 | CN1CCC[C@H]1COc1ncccc1OCCO [CBK042185] | 89.4224
41 | c1ccc(-c2nnc3ccccc3c2N2CCNCC2)cc1 [CBK066888] | 0.3069
42 | Cc1cc(C)c(OCC(=O)Nc2cc(-c3nc4ncccc4o3)ccc2C)c(Cl)c1 [CBK072887] | 87.5317

Row | Compound | % of control remaining
43 | O=C(Nc1cc(Oc2ccc(Cl)cc2)cc([N+](=O)[O-])c1)c1cnn2c(C(F)F)cc(C3CC3)nc12 [CBK268925] | 128.602
44 | Cc1sc(C(N)=O)cc1[N+](=O)[O-] [CBK066863] | 98.7783
45 | CC(N)C1CCCN(S(=O)(=O)c2ccc(OCc3ncnn3C)cc2)C1 (stereo not shown) [CBK304105] | 109.074
46 | CCOc1cccc(CN2CCCCC2c2[nH]ncc2C(N)=O)n1 (stereo not shown) [CBK304750] | 48.4123
47 | COc1ccc2oc(=O)c(C(=O)Nc3cccc(O)c3)cc2c1 [CBK270070] | 104.588
48 | COc1cc(OC)nc(C(NC(=O)C2CCN(Cc3ccc(N(C)C)cc3)CC2)c2ccc(F)cc2)n1 (stereo not shown) [CBK148204] | 86.9744
49 | Cc1c(C(=O)N(C)CCc2ccncc2)[nH]c2ccccc12 [CBK283271] | 92.4216
50 | CCC(=O)c1c(CC)n[nH]c1-c1c(Cl)cccc1Cl [CBK107819] | 122.27
51 | CN1CCC(N2CCN(C(=O)NCc3cccnc3)CC2)CC1 [CBK155889] | 91.2299
52 | Nc1ccc2ccc(-c3ccc4c(c3)CCO4)nc2n1 [CBK067625] | 101.016
53 | COc1ccc(CN2CCN(C(=O)c3cccc(F)c3)CC2)c(OC)c1OC [CBK074523] | 84.0422
54 | NS(=O)(=O)c1ccc(CCNC(=O)CN2C(=O)c3ccccc3C2=O)cc1 [CBK264377] | 97.4108
55 | CSc1ccccc1NC(=O)c1cc(Cl)sc1Cl [CBK057008] | 84.2534
56 | CC(=O)Nc1cccc(C(=O)N2CCN(Cc3ccccn3)CC2)c1 [CBK304067] | 30.6554
57 | CN1CCN(c2cc3ncccc3cc2F)CC1 [CBK066904] | 89.9729
58 | CC(CN(C)C(=O)c1c[nH]nn1)Oc1ccc(Cl)c(Cl)c1 (stereo not shown) [CBK306160] | 32.8361
59 | Cc1cc(NN(Cc2ccccc2)Cc2ccccc2)n2c(nc3ccccc32)c1C#N [CBK262666] | 115.208
60 | Nc1nc(COc2ccc(F)cc2)nc(N2CCOCC2)n1 [CBK288183] | 95.7653
61 | CN(C)c1cccc(-c2cnc3[nH]c(=O)n(CCCO)c3n2)c1 [CBK065052] | 108.182
62 | c1ccc(C2(CN3CCN(Cc4cccnc4)CC3)CC2)cc1 [CBK282793] | 72.3663
63 | CC(=O)Nc1cccc(-c2nccnc2C2CCCN(CCc3ccccc3)C2)c1 (stereo not shown) [CBK286128] | 73.7989

Row | Compound | % of control remaining
64 | Cc1cc(COc2ccc(C(F)(F)F)cn2)no1 [CBK115792] | 94.389
65 | CCCN(CC1CC1)C(=O)CC1SC(NCC2CCCCC2)=NC1=O (stereo not shown) [CBK067014] | 79.2781
66 | CCCn1c(SCC(=O)N2c3ccc(F)cc3CCC2C)nnc1-c1cccnc1 (stereo not shown) [CBK059187] | 49.1821
67 | COc1cccc(C(=O)N2CCOC(c3cc(C(=O)NCC(C)C)c4ccccc4n3)C2)c1 (stereo not shown) [CBK285894] | 116.786
68 | CCN1CCN(C(=O)Cc2cccnc2)CC1 [CBK200375] | 97.5873
69 | CN(C)S(=O)(=O)c1ccc(C(=O)C2=C(O)C(=O)N(Cc3cccnc3)C2c2ccncc2)cc1 (stereo not shown) [CBK264714] | 95.1269
70 | Cc1onc(-c2ccccc2)c1C(=O)NCCCn1ccnc1 [CBK262870] | 57.6336
71 | COc1ccc(CNC(=O)c2cc(S(=O)(=O)N(C)C)cs2)cc1 [CBK307579] | 51.7764
72 | CC1Cc2ccccc2N1C(=O)c1nn(C)cc1I (stereo not shown) [CBK058268] | 78.2731
73 | O=C(O)CCn1c(=O)cc(C(F)F)c2cn(Cc3ccccc3)nc21 [CBK286881] | 98.5618
74 | O=C(NCc1ccccc1OC1CCNC1)c1ccccn1 (stereo not shown) [CBK029464T] | 75.1307
75 | COc1cc2c(cc1OC)CN(Cc1nc3ccccc3[nH]1)CC2 [CBK126390] | 110.791
76 | Cc1cc(-c2nnc(SCC(=O)N3CCCc4ccccc43)o2)no1 [CBK268828] | 102.01
77 | CC(C)[C@@H](Cn1nc(-c2cccs2)ccc1=O)NC(=O)C1CC1 [CBK284297] | 84.4293
78 | Cc1nn(CCC(=O)NC(C)(C)CN2CCCC(C)C2)c(C)c1C (stereo not shown) [CBK282676] | 106.579
79 | CCOC(=O)/C(C#N)=C(\O)c1ccc(N2C(=O)c3ccc(C(=O)O)cc3C2=O)cc1 [CBK262683] | 102.811
80 | CCc1nc2ccc(C(=O)N3CCCCC3)cn2c1N(CC)Cc1ccc2c(c1)OCCO2 [CBK146903] | 84.7596
81 | C=CCNC(=O)N1CC[C@H]2CC(=O)N(Cc3ccc4c(c3)OCO4)CC[C@H]2C1 [CBK288794] | 100.691
82 | CN(C)CCN(C)C1CCN(Cc2ccccc2)CC1 [CBK261930] | 56.7286
